# Laboratory results: the antibiotic and cytotoxicity screens of Wong et al. (2023)
# The other results are listed elsewhere or left out.
# Tested on: HSkMC (human skeletal muscle cells)
# Assay: cytotoxicity call (relative viability < 0.9)
# Conditions: 10 µM
row,Compound,cytotoxicity call
1,C[C@@H]1CN([C@H](C)CO)C(=O)Cc2cc(NC(=O)c3ccncc3)ccc2O[C@@H]1CN(C)Cc1ccncc1,inactive
2,COCCNC(=O)C[C@H]1CC[C@H]2[C@H](COc3ccc(NC(=O)Nc4cccc(F)c4)cc3C(=O)N2C)O1,inactive
3,Cc1ccc(S(=O)(=O)Nc2ccc3c(c2)C(=O)N([C@H](C)CO)C[C@H](C)[C@@H](CN(C)S(=O)(=O)c2ccc(C)cc2)OCCCC[C@H](C)O3)cc1,inactive
4,C[C@@H]1CN([C@H](C)CO)C(=O)c2cc(NC(=O)Nc3ccc4c(c3)OCO4)ccc2O[C@@H]1CN(C)Cc1ccc(Oc2ccccc2)cc1,active
5,C[C@@H]1CN([C@@H](C)CO)C(=O)c2cccc(NC(=O)C3CCCCC3)c2O[C@@H]1CN(C)S(=O)(=O)c1cn(C)cn1,inactive
6,CO[C@@H]1CN(C)C(=O)c2ccc(NS(=O)(=O)CC(F)(F)F)cc2OC[C@@H](C)N(C(=O)NC(C)C)C[C@@H]1C,inactive
7,O=C(CCCCCCC(=O)Nc1ccc([C@H]2C[C@H](c3ccccc3)O[C@H](c3ccc(Oc4ccccc4)cc3)O2)cc1)NO,active
8,CC1=C(C(=O)O)N2C(=O)[C@@H](NC(=O)[C@H](N)c3ccc(O)cc3)[C@H]2SC1,inactive
9,COc1ccc(S(=O)(=O)N2C[C@@H](O)COC[C@H]3O[C@H](CC(=O)NCc4ccc(Cl)c(Cl)c4)CC[C@@H]32)cc1,inactive
10,OC[C@H]1COCc2cnnn21,inactive
11,C[C@@H]1CCCCO[C@@H](CN(C)S(=O)(=O)c2ccc(Cl)cc2)[C@@H](C)CN([C@@H](C)CO)C(=O)c2cc(NC(=O)Nc3ccccc3)ccc2O1,inactive
12,Cc1noc(C)c1S(=O)(=O)N(C)C[C@H]1Oc2ccc(NC(=O)CCCN(C)C)cc2C(=O)N([C@@H](C)CO)C[C@H]1C,inactive
13,CN(C)CC(=O)N[C@H]1CC[C@@H](CCNC(=O)C2CCC2)O[C@H]1CO,inactive
14,NNC(=O)CS(=O)(=O)c1ccc(Cl)cc1,inactive
15,COc1cccc(OC)c1OCCNCCO,inactive
16,C[C@@H]1CCCCO[C@H](CN(C)C(=O)Nc2cccc3ccccc23)[C@H](C)CN([C@@H](C)CO)C(=O)c2cc(NC(=O)C3CCCCC3)ccc2O1,inactive
17,C[C@@H]1CN([C@@H](C)CO)C(=O)c2cc(NC(=O)C3CCCCC3)ccc2O[C@@H](C)CCCCO[C@H]1CN(C)C(=O)Nc1ccc2c(c1)OCO2,inactive
18,C[C@@H]1CCCCO[C@H](CN(C)S(=O)(=O)c2cccs2)[C@@H](C)CN([C@@H](C)CO)C(=O)c2cc(NC(=O)Cc3ccccc3)ccc2O1,inactive
19,C[C@@H]1CCCCO[C@@H](CN(C)Cc2ccc(Cl)c(Cl)c2)[C@H](C)CN([C@H](C)CO)C(=O)c2cc(NS(=O)(=O)c3ccc(Cl)cc3)ccc2O1,active
20,C[C@@H]1CN([C@H](C)CO)C(=O)Cc2cc(NC(=O)Cn3cnnn3)ccc2O[C@H]1CN(C)C(=O)Nc1ccc(F)cc1,inactive
21,COc1ccc(S(=O)(=O)N(C)C[C@@H]2Oc3ccc(NC(=O)CCN4CCOCC4)cc3C(=O)N([C@@H](C)CO)C[C@H]2C)cc1,inactive
22,C[C@@H]1CCCCO[C@H](CN(C)C(=O)c2ccccc2)[C@@H](C)CN([C@H](C)CO)C(=O)c2cc(NC(=O)CCC(F)(F)F)ccc2O1,inactive
23,C[C@@H]1CCCCO[C@H](CN(C)S(=O)(=O)c2cccs2)[C@@H](C)CN([C@@H](C)CO)C(=O)c2cc(NC(=O)CCC(F)(F)F)ccc2O1,inactive
24,Cc1noc(C)c1S(=O)(=O)Nc1ccc2c(c1)C(=O)N([C@H](C)CO)C[C@@H](C)[C@H](CN(C)S(=O)(=O)c1cn(C)cn1)OCCCC[C@@H](C)O2,inactive
25,COc1ccc(C2=C(N)C(=O)NC2=O)cc1OC,inactive
26,CC(C)c1nc2cc3sc(C(C)C)nc3cc2s1,inactive
27,Cc1noc(C)c1NC(=O)N(C)C[C@H]1Oc2ccc(NC(=O)Nc3cccc4ccccc34)cc2C(=O)N([C@H](C)CO)C[C@H]1C,inactive
28,Cc1noc(C)c1NC(=O)Nc1ccc2c(c1)C(=O)N([C@@H](C)CO)C[C@H](C)[C@@H](CN(C)S(=O)(=O)c1cn(C)cn1)O2,inactive
29,CCCC#Cc1ccc2c(c1)O[C@H](CN(C)S(=O)(=O)c1cccc(OC)c1)[C@H](C)CN([C@@H](C)CO)S2(=O)=O,inactive
30,C[C@H]1CCCCO[C@H](CN(C)Cc2ccccc2)[C@@H](C)CN([C@@H](C)CO)C(=O)c2cc(NS(=O)(=O)c3ccc(F)cc3)ccc2O1,inactive
